# According to PubChem BioAssay AID686979 (National Center for Advancing Translational Sciences (NCATS), 2013):
# Where “and” joins values, the source holds several entries; their conditions need not be identical. Identical values can stand only once. Among all 420,000 compounds or so, about 50,000 (12%) were called active. Inconclusive results, whose numbers are uncertain, are shown with a selection of clear calls. Calls follow the shape of the dose curve; as a rule, active = well fitted inhibition curve with a large enough effect; inconclusive = small, poorly fitted or top-dose-only effect; inactive = flat fitted curve, though single readings scatter. No potency is given beside an inconclusive call; the fits are too rough.
# Test: qHTS for Inhibitors of human tyrosyl-DNA phosphodiesterase 1 (TDP1): qHTS in cells in presence of CPT; also: nearly all actives have a fitted effect of over 55% in size
# Settings: chicken DT40 Tdp1-/-;hTDP1 cells + 20 nM CPT, ATP luminescence, 48 h; activity change, negative = growth inhibition: at 46.2 µM (top of the series) unless noted
# In short: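 Cell growth measured by CellTiter-Glo luminescence after a minimum 48 h, 37 C compound exposure with 20 nM CPT in Tdp1-knockout DT40 cells stably expressing hTDP1, seeded 400/well; qHTS titration format.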
# % is scaled to controls: 0 for no effect and ±100 for the full control effect; potency is read from the fitted curve at half-maximal effect; tags tell the direction and shape of the fitted curve.
SMILES,Potency,"activity change, negative = growth inhibition"
Clc1ccc(-c2nc3ccc(Cl)cn3c2Cc2ccccc2)cc1,"inconclusive [inhibitor, single point]",
COc1cc(/C=C2\SC(=S)N(CCC(=O)Nc3ccccc3O)C2=O)cc(OC)c1OC,"inconclusive [inhibitor, single point]",
COc1ccc(OC)c(NC(=O)c2nnn(Cc3ccc(Br)cc3F)c2N)c1,active: 8.2 µM,
COc1cc(OC)cc(C(=O)NNC(=O)c2nn(C)c(=O)c3ccccc23)c1,"inconclusive [inhibitor, partial curve]",
CN1CCc2c(OCC(=O)N3N=C(c4cccs4)CC3c3ccc(F)cc3)cccc2C1=O (configuration not stated),active: 11.6 µM,
CCNS(=O)(=O)c1ccc(NC(=S)N2CCc3ccccc32)cc1,"inconclusive [inhibitor, single point]",
COc1ccc(/C=C/C(=O)c2ccc(NS(=O)(=O)c3ccc(C)cc3)cc2)cc1O,"inconclusive [inhibitor, single point]",
CCc1c(O)nc(N2CCN(Cc3ccccc3)CC2)[nH]c1=O,,inactive: -4.81%
Cc1cn(-c2cc(NC(=O)c3ccc(C)c(NC(=O)c4cccc(-c5cn[nH]c(=O)c5)c4)c3)cc(C(F)(F)F)c2)cn1,"inconclusive [inhibitor, single point]",
Cc1cccc(C(=O)OCC(=O)c2c(C)[nH]c3ccccc23)c1O,"inconclusive [inhibitor, single point]",
CC(C)C(NC(=O)c1ccc(C(C)(C)C)cc1)C(=O)NCCc1ccccn1 (configuration not stated),"inconclusive [inhibitor, single point]",
O=C(NCCCn1ccnc1)c1cc2c(ccc3ccccc32)o1,,inactive: 0.7%
COCCn1c(SCC#N)nnc1-c1ccc([N+](=O)[O-])cc1,,inactive: -20.4%
CSCCC1NC(=O)N(C(C)C(=O)Nc2cc(Cl)cc(Cl)c2)C1=O (configuration not stated),,inactive: 0.237%
CCN1CCc2c(sc(NC(=O)c3ccc(S(=O)(=O)N(C)CC4CCCO4)cc3)c2C(N)=O)C1 (configuration not stated),,inactive: -35.7%
CC1(C)Oc2ccc(C(=O)NC3CCCC3)cc2N(CC(=O)NC2CCCCC2)C1=O,,inactive: -27.7%
CCn1c(/N=C/c2ccc(OC)cc2O)nc2ccccc21,,inactive: 12.4%
Cn1c(=O)n(CCc2ccccc2)c(=O)c2c1nc1n2CCCN1CCc1ccccc1,active: 11.6 µM,
Clc1ccc(CSc2nncn2-c2ccc3c(c2)OCCO3)cc1,active: 2.59 µM,
C=CC[C@]12C[C@@H](OC)C(=O)C=C1O[C@@H](c1ccc(OC)c(OC)c1)[C@H]2C,active: 18.4 µM,
CCOc1ccc2nc(NC(=O)C3CSC4(C)CCC(=O)N34)sc2c1 (configuration not stated),"inconclusive [inhibitor, partial curve]",
CC(C)(C)OC(=O)N1CC=C2C(C#N)=C(N)C(C#N)(C#N)C(c3cccs3)C2C1 (configuration not stated),"inconclusive [inhibitor, single point]",
O=C(Nc1ccc([N+](=O)[O-])cc1Cl)c1ccccc1O,active: 891 nM and active: 3.16 µM,
CC(C)OC(=O)CN1C(=O)S/C(=C/c2ccc(N3CCCCC3)o2)C1=O,active: 16.4 µM,

SMILES,Potency,"activity change, negative = growth inhibition"
COc1ccc(-c2c(C#N)c(N)nc3c2c(=O)n(C)c(=O)n3C)cc1,"inconclusive [inhibitor, partial curve, poor fit]",
Cc1ccc(Sc2c(C#N)c(-c3ccccc3)nn2C)cc1,"inconclusive [inhibitor, single point]",
CCCn1c(SCC(=O)NC2CCCCC2C)n[nH]c1=O (configuration not stated),,inactive: -11.6%
O=C(NCc1ccccc1)c1cccc2c(-c3ccc(F)c(F)c3)coc12,"inconclusive [inhibitor, single point]",
CC(C)(C)S(=O)N1Cc2cc(CO)cc(-c3ccccc3)c2[C@@H]1CCO (some centres not stated),"inconclusive [inhibitor, partial curve]",
O=C(Nc1ccccc1)Nc1n[nH]c2nnc(-c3ccccc3)c(-c3ccccc3)c12,"inconclusive [inhibitor, single point]",
COc1ccc(C#Cc2c(-c3ccccc3)n(-c3ccccc3)c3ccc(CO)cc23)cc1,"inconclusive [inhibitor, single point]",
Oc1c(Br)cc(Br)cc1CNn1cnnc1,,inactive: -9.12%
CCOC(=O)C1(C)CCCN(C(=O)c2ccc(F)c(Cl)c2)C1 (configuration not stated),"inconclusive [inhibitor, single point]",
Nc1nc2n(n1)C(c1cccs1)CC(c1ccc(Br)cc1)N2 (configuration not stated),,inconclusive: -30.9% [inhibitor]
CCC(CCNC(=O)c1ccccc1)(CCNC(=O)c1ccccc1)[N+](=O)[O-],,inactive: -18.5%
COc1ccc(NC(=O)CN2C(=O)NC3(CCCCC3C)C2=O)cc1OC (configuration not stated),,inactive: -5.71%
CN1CCC(=O)N([C@H](COc2ccccc2)Cc2ccccc2)CC1,inactive,
CCC(C(=O)NC1CCCC1)n1c(-c2cc3ccccc3[nH]2)nc2ccccc21 (configuration not stated),"inconclusive [inhibitor, single point]",
Cc1ccccc1CC1(CO)CCCN(Cc2ccc3c(c2)OCCO3)C1 (configuration not stated),"inconclusive [inhibitor, single point]",
O=c1c(-c2ccccc2)nc2ccccc2n1C(c1ccccn1)c1nc2ccccc2[nH]1 (configuration not stated),"inconclusive [inhibitor, partial curve, poor fit]",
O=C(COC(=O)c1nc(Cl)ccc1Cl)NNC(=O)c1cccs1,,inactive: 0.64%
Cc1cc(C)cc(N(CC(=O)Nc2ccccc2)C2=NC3CS(=O)(=O)CC3S2)c1 (configuration not stated),"inconclusive [inhibitor, single point]",
CCCCCCSc1ccc([C@H]2N[C@@](Cc3ccccc3)(C(=O)OC)[C@H]3C(=O)N(CC)C(=O)[C@@H]23)cc1,"inconclusive [inhibitor, single point]",
CC(C)(C)OC(=O)NCCCCCNC(=O)c1[nH]cnc1C(=O)Nc1ccccc1,"inconclusive [inhibitor, single point]",
O=S(=O)(Nc1cc(C(F)(F)F)ccc1N1CCOCC1)c1ccc2ccccc2c1,active: 16.4 µM,
CCC(=O)N(Cc1cc2ccc(C)cc2n2nnnc12)C1CCCCC1,,inconclusive: -34.9% [inhibitor]
CS(=O)(=O)Nc1cccc(-c2ccc3ncnc(NC4CCNCC4)c3c2)c1,,inactive: -1.22%
C=CCOc1ccc(/C=C2/C(=O)ON=C2C)cc1OC,"inconclusive [inhibitor, partial curve, poor fit]",

SMILES,Potency,"activity change, negative = growth inhibition"
CN(C)c1cccc2c1c(NC(=O)Nc1ccccc1)nn2C,"inconclusive [inhibitor, single point]",
COc1ccc(/C=C/c2onc(C)c2S(=O)(=O)N2CCC(C(=O)N3CCCCC3)CC2)cc1,"inconclusive [inhibitor, single point]",
COc1ccc(NC(=O)N(Cc2cc3ccc(OC)cc3[nH]c2=O)CC2CCCO2)cc1 (configuration not stated),active: 18.4 µM,
Cc1ccc(-c2cn(-c3ccc(OC(F)F)cc3)c3[n+]2CCCCC3)cc1,active: 0.651 µM,
Cc1cccc(C)c1N(CC(=O)NCc1ccc(F)cc1)C(=O)c1csnn1,"inconclusive [inhibitor, single point]",
COc1ccc(S(=O)(=O)N2CCCCCC2)cc1C(=O)N(C)CC(=O)Nc1ccccc1C(F)(F)F,"inconclusive [inhibitor, single point]",
C=CCN1CC(=O)N2C(c3ccccc3)c3[nH]c4ccccc4c3C[C@H]2C1=O (some centres not stated),"inconclusive [inhibitor, single point]",
COc1ccc(NC(=O)CCCc2nnc3n(CCC(C)C)c(=O)c4sccc4n23)cc1Cl,"inconclusive [inhibitor, single point]",
CC1CCCC(C)N1C(=O)COC(=O)CNC(=O)c1ccccc1F (configuration not stated),,inactive: -2.96%
Cc1ccc(C(=O)NCC(c2ccco2)N2CCc3ccccc3C2)cc1 (configuration not stated),"inconclusive [inhibitor, single point]",
O=C(NCc1ccco1)/C(=C\c1ccc(F)cc1)NC(=O)c1ccco1,,inactive: 32.9%
O=C(CCN1CCCC1Cc1ccccc1)c1ccc2c(c1)OCCO2 (configuration not stated),active: 2.59 µM,
CCOC(=O)N1CCN(C(=O)COC(=O)c2cccc(S(C)(=O)=O)c2)CC1,,inactive: -0.23%
COc1ccc(-c2cc(C(C)=O)c(C)n2CCC(=O)NC2CCCCC2)cc1,active: 23.1 µM,
Cc1ccc(-n2c(SCCC(C)C)nc3sc4c(c3c2=O)CC(C)(C)OC4)cc1,,inactive: -28%
COc1ccc(NC(=O)c2cc(-c3cc(F)ccc3OC)n[nH]2)cn1,"inconclusive [inhibitor, partial curve]",
O=C(Nc1cnccn1)c1cccs1,,inactive: -26.6%
COc1ccc(NS(=O)(=O)c2ccc(-n3cnnn3)cc2)cc1OC,active: 16.4 µM,
CN(CC(=O)Nc1ccccc1C(=O)N1CCCC1)S(=O)(=O)c1ccc(Br)cc1,"inconclusive [inhibitor, partial curve, poor fit]",
COc1cc(-n2c(=O)c3ccccc3n(Cc3ccccc3)c2=O)cc(OC)c1OC,"inconclusive [inhibitor, single point]",
O=S(=O)(CCNCCc1ccccc1)NC1CCCCC1,,inactive: -1.49%
CCn1c(SCc2c(Cl)cccc2Cl)nc2nc3c(cc2c1=O)CCCC3,"inconclusive [inhibitor, single point]",
CCN1C(=O)c2ccccc2Sc2ccc(C(=O)NCCC(C)C)cc21,,inactive: 2.3%
Cc1ccc(C(=O)N/N=C/c2ccc(-c3cccc(C(F)(F)F)c3)o2)cn1,active: 2.91 µM,
